From PubChem BioAssay AID485360 (National Center for Advancing Translational Sciences (NCATS), 2010)
In all, about 230,000 compounds went through this assay and about 1,500 (0.65%) were called active. Inconclusive results, whose numbers are uncertain, are shown with a selection of clear calls. Calls follow the shape of the dose curve; as a rule, active = well fitted inhibition curve with a large enough effect; inconclusive = small, poorly fitted or top-dose-only effect; inactive = no such curve, though single readings can be large or run the other way. A potency beside an inconclusive call is a rough fit, not a confirmed value.

Biological target: Lethal(3)malignant brain tumor-like protein 1 (Homo sapiens) (UniProt Q9Y468)
Experiment: qHTS Assay for the Inhibitors of L3MBTL1; also: nearly all actives have a fitted effect of over 60% in size
Conditions: AlphaScreen L3MBTL1–H3K9me1 peptide binding; activity, negative = inhibition: at 57.1 µM (top of the series)
Summary of the method: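 AlphaScreen proximity signal between nickel-chelate acceptor and streptavidin donor beads (final 10 ug/mL) reports binding of 50 nM L3MBTL1 to 75 nM biotin-H3 K9me1 peptide; complex incubated with compounds 30 min at room temperature; cefsulodin titration as control.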
% is scaled to controls: 0 for no effect and ±100 for the full control effect; potency is read from the fitted curve at half-maximal effect; tags tell the direction and shape of the fitted curve.

Sequence of UniProt Q9Y468 (Q9Y468 whole entry, looked up): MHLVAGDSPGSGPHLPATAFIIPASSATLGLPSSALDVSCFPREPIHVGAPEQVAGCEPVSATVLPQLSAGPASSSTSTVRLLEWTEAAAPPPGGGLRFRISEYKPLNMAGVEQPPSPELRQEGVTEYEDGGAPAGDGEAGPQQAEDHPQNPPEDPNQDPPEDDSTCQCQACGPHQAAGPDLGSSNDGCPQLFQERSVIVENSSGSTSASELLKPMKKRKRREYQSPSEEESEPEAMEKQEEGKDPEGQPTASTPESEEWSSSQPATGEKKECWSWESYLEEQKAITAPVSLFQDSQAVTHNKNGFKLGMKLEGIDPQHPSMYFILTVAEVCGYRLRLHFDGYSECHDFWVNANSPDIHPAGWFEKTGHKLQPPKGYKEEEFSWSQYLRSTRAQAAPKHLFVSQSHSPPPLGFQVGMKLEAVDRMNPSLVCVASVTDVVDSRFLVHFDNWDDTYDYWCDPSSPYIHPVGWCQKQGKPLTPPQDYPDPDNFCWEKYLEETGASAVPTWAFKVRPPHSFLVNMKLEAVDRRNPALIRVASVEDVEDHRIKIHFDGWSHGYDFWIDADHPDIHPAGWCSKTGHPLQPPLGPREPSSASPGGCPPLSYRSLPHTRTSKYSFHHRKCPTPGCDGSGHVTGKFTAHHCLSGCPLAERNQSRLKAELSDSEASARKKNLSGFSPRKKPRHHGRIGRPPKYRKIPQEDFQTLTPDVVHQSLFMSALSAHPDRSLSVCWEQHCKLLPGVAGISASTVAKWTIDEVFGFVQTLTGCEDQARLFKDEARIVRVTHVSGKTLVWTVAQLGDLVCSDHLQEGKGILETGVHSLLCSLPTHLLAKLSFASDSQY

Structure (SMILES)	Potency	activity, negative = inhibition
O=C(c1ccco1)N1CCCN(Cc2cn[nH]c2-c2ccc(-c3ccccc3)cc2)CC1	inconclusive: 31.6 µM [inhibitor, single point]	–
Nc1n[nH]c(N)c1N=Nc1ccc2c(c1)OCO2	inconclusive: 31.6 µM [inhibitor, single point]	–
COC(=O)c1cccc(C(=O)Nc2cnc3ccccc3c2)n1	inconclusive: 0.708 µM [inhibitor, single point]	–
Cc1ccccc1C(=O)NC1CCN(Cc2nnnn2CCc2ccccc2)CC1	inconclusive: 31.6 µM [inhibitor, single point]	–
CN1C(=O)c2c(sc3c2CCCC3)NC1c1ccccc1O (stereo not given)	–	inactive: -0.843% [at 11.4 µM]
CCCC(C)NC(=O)c1c2c(nc3ccccc13)CCC2 (stereo not given)	inconclusive: 15.8 µM [inhibitor, single point]	–
COc1ccc(NC(=O)CNc2ccccc2C(C)=O)cc1S(=O)(=O)N1CCOCC1	inactive	–
CC(NC(=O)C(c1ccccc1)c1ccccc1)C(=O)N1CCCCC1 (stereo not given)	inconclusive: 0.1 µM [inhibitor, full curve, poor fit]	–
O=C(Nc1ccc(F)cc1)Nc1cc(S(=O)(=O)N2CCOCC2)ccc1N1CCCC1	inconclusive: 0.708 µM [inhibitor, full curve, poor fit]	–
Cc1ccc(Nc2c(-c3ccccc3O)nc3ncccn23)cc1	inconclusive: 20 µM [inhibitor, partial curve]	–
Cc1cccc(NC(=O)CSc2nnc(-c3ccco3)c(-c3ccco3)n2)c1	inconclusive: 39.8 µM [inhibitor, single point]	–
COC(=O)c1c(NC(NC(=O)c2ccccc2)(C(F)(F)F)C(F)(F)F)sc2c1CCN(C)C2	inconclusive: 39.8 µM [inhibitor, single point]	–
Cc1cccc(OCCn2nnc3ccccc32)c1C	inactive	–
CC1(c2ccccc2)NC(=O)N(CC(=O)NCC2CCCO2)C1=O (stereo not given)	inconclusive: 0.794 µM [inhibitor, single point]	–
Cc1cc(/C=C2\C(=N)N3N=C(c4ccco4)SC3=NC2=O)c(C)n1Cc1ccccc1	inconclusive: 14.1 µM [inhibitor, partial curve]	–
COc1cccc(C2c3c(C)nn(-c4ccc([N+](=O)[O-])cc4)c3N=C3C(=O)Nc4ccccc4N32)c1 (stereo not given)	inactive	–
CN(CC1CCCO1)S(=O)(=O)c1ccc(C(=O)Nc2nc(-c3ccccn3)cs2)cc1 (stereo not given)	active: 31.6 µM	–
C=CCn1c(C)cc(C(=O)COC(=O)c2ccc3c(c2)NC(=O)CS3)c1C	inconclusive: 22.4 µM [inhibitor, partial curve]	–
CC[C@H](C)NC(=O)c1ccc(Cn2c(=S)[nH]c3c([nH]c4ccc(OC)cc43)c2=O)cc1	inconclusive: 39.8 µM [inhibitor, single point]	–
CC(C)c1nc(Cl)c(C#N)c2c1CSC(C)(C)C2	inactive	–
COc1ccc(N2C(=O)CC(NNc3ncc(Cl)cc3Cl)C2=O)cc1 (stereo not given)	inconclusive: 0.794 µM [inhibitor, full curve, poor fit]	–
NC(=S)Cc1nc(-c2ccc(Cl)cc2)cs1	inconclusive: 0.282 µM [inhibitor, full curve, poor fit]	–
COc1ccccc1[C@]1(C)ON(c2ccccc2C(F)(F)F)C1=O	inactive	–
N=c1n(CCN2CCOCC2)c2ccccc2n1CC(=O)c1ccc(Cl)c(Cl)c1	inconclusive: 0.562 µM [inhibitor, partial curve, poor fit]	–

Structure (SMILES)	Potency	activity, negative = inhibition
O=C(NCCCCc1ccccc1)c1ccc(Br)o1	inconclusive: 0.141 µM [inhibitor, full curve, poor fit]	–
Cc1ccc2nc(NNC(=O)c3ccc(S(=O)(=O)N4CCc5ccccc5C4)cc3)sc2c1	–	inconclusive: -54.9% [inhibitor]
C=CCc1ccc(OCCOCCNCCOC)c(OC)c1	inconclusive: 0.794 µM [inhibitor, single point]	–
Cc1ccc(S(=O)(=O)N2CCOCC2)cc1C(=O)N1CCc2ccccc21	inconclusive: 39.8 µM [inhibitor, single point]	–
Cc1ccc(NC(=O)CSc2nc(-c3cccs3)nc3cc(=O)[nH]n23)cc1C	inconclusive: 31.6 µM [inhibitor, single point]	–
C#CCN1C(=O)S/C(=C/C=C/c2ccc(N(C)C)cc2)C1=O	inconclusive: 14.1 µM [inhibitor, partial curve]	–
CCc1oc(C(=O)O)cc1COC	inconclusive: 35.5 µM [inhibitor, single point]	–
Cn1c(SCc2c(F)cccc2Cl)nc2c(c1=O)SCC2	inconclusive: 28.2 µM [inhibitor, single point]	–
Cn1cccc1Cc1nnc(SCC(=O)Nc2ccccc2F)n1CCc1ccccc1	inconclusive: 35.5 µM [inhibitor, single point]	–
COc1cc(/C=N/N=C2/NC(=O)C(CC(=O)O)S2)ccc1OCc1ccc(Cl)cc1 (stereo not given)	inactive	–
C/C(=N\NC(=O)COc1ccccc1-c1ccccc1)c1cccnc1	inactive	–
Cc1ccc(C2C(C(=O)c3cccs3)=C(O)C(=O)N2c2nnc(C)s2)cc1 (stereo not given)	inactive	–
O=C(CSC1CN(C(c2ccccc2)c2ccccc2)C1)N/N=C/c1ccccc1	inconclusive: 20 µM [inhibitor, partial curve]	–
Cc1cc(C)c(C#N)c(=N)o1	inactive	–
O=[N+]([O-])c1ccccc1/C=C/C=N/Nc1ccc(S(=O)(=O)Nc2ccc(Cl)cc2)cc1[N+](=O)[O-]	inconclusive: 2.24 µM [inhibitor, full curve, poor fit]	–
CCOC(=O)C1CCN(c2c(NCCN3CCN(c4ccccc4)CC3)c(=O)c2=O)CC1	inconclusive: 39.8 µM [inhibitor, single point]	–
CCc1c(C)sc(NC(=O)C2CCCCC2C(=O)O)c1C(N)=O (stereo not given)	inactive	–
COc1cc(/C=C2/SC(=Nc3ccc(O)cc3)NC2=O)cc(OC)c1O	inconclusive: 2.24 µM [inhibitor, partial curve]	–
Cc1ccccc1Nc1nnc(SCC(=O)NC(=O)NCc2ccco2)s1	active: 28.2 µM	–
O=C(COC(=O)C1CC1)c1c[nH]c2ccccc12	inconclusive: 0.708 µM [inhibitor, single point]	–
CC(C)[C@H](NC(=O)[C@@H]1Cc2c([nH]c3ccccc23)C2c3ccccc3C(=O)N21)C(=O)NCC1CCCO1 (stereo not given in full)	inactive	–
O=C(O)C(O)c1ccco1 (stereo not given)	active: 5.01 µM	–
O=C(COC(=O)c1ccncc1)c1ccccc1	inconclusive: 4.47 µM [inhibitor, partial curve]	–
COc1ccc(N2CCN(C(=O)/C=C/c3ccco3)CC2)cc1	inconclusive: 0.158 µM [inhibitor, full curve, poor fit]	–

Structure (SMILES)	Potency	activity, negative = inhibition
COc1ccc(S(=O)(=O)N(C)CC(=O)Nc2ccccc2SC)cc1Cl	inconclusive: 1.78 µM [inhibitor, single point]	–
CC(C)c1ccccc1NC(=O)C1C2C=CC(C2)C1C(=O)O (stereo not given)	inactive	–
CN(C)c1ccc(C(=O)Nc2cccc(S(=O)(=O)NC3=NCCCCC3)c2)cc1	inactive	–
CCN=c1scc(C)n1/N=C/c1ccc(O)c(O)c1O	active: 31.6 µM	–
Cc1ccsc1C=Nc1ccc(O)cc1	inconclusive: 28.2 µM [inhibitor, single point]	–
Cc1cc(C(=O)O)ccc1-c1ccc(CO)o1	inconclusive: 39.8 µM [inhibitor, single point]	–
CC(C)S(=O)(=O)C/C(N)=N/OC(=O)c1cc(Cl)cc(Cl)c1	inactive	–
COc1ccc(S(=O)(=O)CCC(=O)N(C)c2ccc(OC)cc2OC)cc1	inconclusive: 4.47 µM [inhibitor, single point]	–
CC(=O)OCCn1c2nc(=O)[nH]c(=O)c-2nc2cc(C)c(C)cc21	inactive	–
CCc1ccc(C(=O)NNc2ccc(F)cc2F)cc1	inactive	–
C=CCNc1nc2c(c(=O)n(C)c(=O)n2C)n1CC	inconclusive: 4.47 µM [inhibitor, full curve, poor fit]	–
O=C(CSc1nnc(-c2ccc(S(=O)(=O)N3CCCC3)cc2)o1)NCc1ccccc1	inconclusive: 3.98 µM [inhibitor, single point]	–
COC(=O)CN(C)C(=O)c1ccccc1OC1CCN(S(C)(=O)=O)CC1	inactive	–
C=CC(=O)Nc1ccc(N(C)c2ccnc(Nc3ccc(N4CCN(C)CC4)cc3)n2)cc1	inconclusive: 14.1 µM [inhibitor, partial curve]	–
Cc1ccc(SCCC(=O)OCC(=O)Nc2ccc(S(N)(=O)=O)cc2)cc1	inconclusive: 35.5 µM [inhibitor, partial curve]	–
CCN(CC)c1ccc(/C=N/NC(=O)c2cc(C)nc3ccccc23)cc1	inconclusive: 31.6 µM [inhibitor, single point]	–
CNC(=O)COC(=O)c1cc(-c2ccco2)nc2ccccc12	active: 28.2 µM	–
CC(=O)Nc1cccc(NC(=S)Nc2ccc(F)cc2F)c1	inconclusive: 0.1 µM [inhibitor, full curve, poor fit]	–
O=C1C=C(Nc2ccccc2)c2ccccc2C1=O	inconclusive: 5.01 µM [inhibitor, full curve]	–
COc1ccc(Nc2nc(N)nc(CN3CCN(c4ccc(F)cc4)CC3)n2)cc1	inconclusive: 15.8 µM [inhibitor, single point]	–
O=C(Cc1cccs1)Nc1ccc(-c2nnn(CC(=O)N3CCOCC3)n2)cc1	inconclusive: 31.6 µM [inhibitor, single point]	–
O=C(Nc1ccncc1)c1ccc(C(=O)Nc2ccncc2)cc1	inconclusive: 3.98 µM [inhibitor, single point]	–
